Reference: article PMC5303829, “A CAF40-binding motif facilitates recruitment of the CCR4-NOT complex to mRNAs targeted by Drosophila Roquin” (Nature Communications, 2017)
Residue numbers refer to the chain shown, from its start. No constants are given. Whether binding was seen depends on the method and setting. For some of these results: Binding seen in cells or lysates may run through a third protein. Some entries that bind do so weakly or less than the wild type. For some of these results: Where a sequence is shown, tags or fusion partners need not be part of it.

Chains of the proteins cited; added tags and fusions are not shown. Lines headed by an entry give the natural chain unless they say otherwise; changes in a name come on top. Residues count along the entry.
UniProt A5YKK6, residues 1093-2371: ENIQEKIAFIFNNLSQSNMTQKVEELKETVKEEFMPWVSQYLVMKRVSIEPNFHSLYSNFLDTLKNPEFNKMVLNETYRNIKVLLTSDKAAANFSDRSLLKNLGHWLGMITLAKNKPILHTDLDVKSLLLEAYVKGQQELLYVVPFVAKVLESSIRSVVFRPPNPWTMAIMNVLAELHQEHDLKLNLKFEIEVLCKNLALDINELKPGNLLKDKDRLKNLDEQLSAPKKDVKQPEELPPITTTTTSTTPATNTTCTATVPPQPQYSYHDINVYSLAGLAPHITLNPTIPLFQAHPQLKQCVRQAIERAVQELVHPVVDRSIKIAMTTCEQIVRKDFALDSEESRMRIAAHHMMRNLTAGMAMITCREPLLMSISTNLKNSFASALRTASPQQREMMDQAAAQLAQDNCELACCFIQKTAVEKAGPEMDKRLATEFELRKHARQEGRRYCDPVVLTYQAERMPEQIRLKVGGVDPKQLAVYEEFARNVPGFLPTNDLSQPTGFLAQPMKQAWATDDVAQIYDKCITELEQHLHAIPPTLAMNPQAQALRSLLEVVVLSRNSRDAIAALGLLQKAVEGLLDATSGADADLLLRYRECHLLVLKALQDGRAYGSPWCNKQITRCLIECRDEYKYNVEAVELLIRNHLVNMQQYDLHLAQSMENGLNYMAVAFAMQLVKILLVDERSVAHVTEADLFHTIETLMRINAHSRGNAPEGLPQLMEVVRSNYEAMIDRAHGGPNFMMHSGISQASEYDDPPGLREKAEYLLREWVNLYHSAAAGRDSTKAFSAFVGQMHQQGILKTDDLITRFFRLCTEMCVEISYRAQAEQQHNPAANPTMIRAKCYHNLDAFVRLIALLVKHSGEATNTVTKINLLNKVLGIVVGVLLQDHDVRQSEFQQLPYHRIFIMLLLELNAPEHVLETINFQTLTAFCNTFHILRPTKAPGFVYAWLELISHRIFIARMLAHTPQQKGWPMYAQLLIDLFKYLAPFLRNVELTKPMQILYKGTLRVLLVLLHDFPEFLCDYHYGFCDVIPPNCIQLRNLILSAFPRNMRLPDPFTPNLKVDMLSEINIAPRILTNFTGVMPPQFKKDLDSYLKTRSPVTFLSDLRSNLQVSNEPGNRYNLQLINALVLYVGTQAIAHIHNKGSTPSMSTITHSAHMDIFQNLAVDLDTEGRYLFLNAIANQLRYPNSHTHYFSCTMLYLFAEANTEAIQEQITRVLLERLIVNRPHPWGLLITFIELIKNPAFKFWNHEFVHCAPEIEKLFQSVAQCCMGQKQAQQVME
UniProt Q92600: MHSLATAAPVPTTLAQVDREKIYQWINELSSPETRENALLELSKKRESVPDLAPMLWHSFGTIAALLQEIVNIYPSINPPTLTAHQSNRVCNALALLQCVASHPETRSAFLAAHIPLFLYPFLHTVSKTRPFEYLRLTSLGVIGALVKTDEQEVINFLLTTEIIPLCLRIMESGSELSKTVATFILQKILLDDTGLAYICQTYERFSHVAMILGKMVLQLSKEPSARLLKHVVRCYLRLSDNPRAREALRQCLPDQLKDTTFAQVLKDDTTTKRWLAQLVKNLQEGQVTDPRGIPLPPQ

Assays:
[1] = molecular target: T1, V5-SBP-tagged Dm Roquin (full-length) (Drosophila melanogaster) (UniProt Q9VV48); test: pull-down; SBP pulldown from lysates of HEK293T cells expressing V5-SBP-tagged Dm Roquin (bait) together with CAF40-HA-MBP and CN9BD-HA; HA-tagged proteins detected by western blotting
T1 sequence: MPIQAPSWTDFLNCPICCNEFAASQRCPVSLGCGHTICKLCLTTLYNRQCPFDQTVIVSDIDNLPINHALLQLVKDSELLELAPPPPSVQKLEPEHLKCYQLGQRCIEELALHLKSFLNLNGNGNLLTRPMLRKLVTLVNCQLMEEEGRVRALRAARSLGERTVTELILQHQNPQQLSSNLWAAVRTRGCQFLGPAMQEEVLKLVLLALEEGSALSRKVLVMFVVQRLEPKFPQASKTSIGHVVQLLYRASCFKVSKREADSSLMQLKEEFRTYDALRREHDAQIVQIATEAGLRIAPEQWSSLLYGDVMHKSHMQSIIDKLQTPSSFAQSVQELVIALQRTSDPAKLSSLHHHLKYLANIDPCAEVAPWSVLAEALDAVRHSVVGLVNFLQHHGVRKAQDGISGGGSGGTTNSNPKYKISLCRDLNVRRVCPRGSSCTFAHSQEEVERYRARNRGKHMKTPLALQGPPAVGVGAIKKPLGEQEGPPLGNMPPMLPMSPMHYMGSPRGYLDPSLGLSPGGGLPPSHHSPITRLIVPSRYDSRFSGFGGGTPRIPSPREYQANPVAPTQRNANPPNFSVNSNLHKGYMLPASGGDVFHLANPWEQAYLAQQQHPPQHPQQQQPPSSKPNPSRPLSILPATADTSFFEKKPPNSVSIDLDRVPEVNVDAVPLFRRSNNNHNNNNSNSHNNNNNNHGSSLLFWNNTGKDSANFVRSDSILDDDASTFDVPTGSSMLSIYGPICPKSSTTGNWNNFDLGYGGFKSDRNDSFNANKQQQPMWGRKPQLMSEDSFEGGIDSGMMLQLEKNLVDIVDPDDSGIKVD

[2] = molecular target: T2, V5-SBP-tagged Dm Roquin M4 mutant (Drosophila melanogaster) (UniProt Q9VV48); test: as above
T2 sequence: T1 sequence with I793E, L801E, L805E, V809E

[3] = molecular target: T3, V5-SBP-tagged Dm Roquin ΔCBM (Drosophila melanogaster) (UniProt Q9VV48); test: as above
T3 sequence: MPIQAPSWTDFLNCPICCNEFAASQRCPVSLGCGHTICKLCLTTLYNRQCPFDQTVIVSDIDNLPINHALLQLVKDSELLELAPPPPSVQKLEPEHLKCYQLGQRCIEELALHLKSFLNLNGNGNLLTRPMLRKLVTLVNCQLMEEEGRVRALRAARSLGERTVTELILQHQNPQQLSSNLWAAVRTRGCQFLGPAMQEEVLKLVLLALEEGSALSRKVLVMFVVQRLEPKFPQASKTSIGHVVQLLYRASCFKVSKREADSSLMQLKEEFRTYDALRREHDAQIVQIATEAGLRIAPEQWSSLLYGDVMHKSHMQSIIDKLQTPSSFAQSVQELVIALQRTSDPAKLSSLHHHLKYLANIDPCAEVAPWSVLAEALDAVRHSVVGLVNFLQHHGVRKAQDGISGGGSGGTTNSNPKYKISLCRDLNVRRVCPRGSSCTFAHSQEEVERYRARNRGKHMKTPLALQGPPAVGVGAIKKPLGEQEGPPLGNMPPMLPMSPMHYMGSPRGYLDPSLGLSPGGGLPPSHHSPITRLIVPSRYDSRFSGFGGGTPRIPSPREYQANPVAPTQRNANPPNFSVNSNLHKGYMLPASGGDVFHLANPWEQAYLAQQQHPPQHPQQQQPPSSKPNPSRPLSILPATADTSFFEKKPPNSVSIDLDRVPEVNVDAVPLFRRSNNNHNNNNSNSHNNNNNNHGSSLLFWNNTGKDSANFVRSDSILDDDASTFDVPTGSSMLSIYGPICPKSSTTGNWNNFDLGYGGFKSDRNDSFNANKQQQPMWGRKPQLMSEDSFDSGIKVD

[4] = molecular target: T4, MBP-tagged Dm Roq-CC mutant M4 (Drosophila melanogaster) (UniProt Q9VV48); test: pull-down; in vitro MBP pulldown: purified MBP-tagged Roquin fragments (40 μg) with equimolar purified CCR4-NOT proteins or subcomplexes on amylose resin; 50 mM HEPES-NaOH pH 7.5, 200 mM NaCl, 2 mM DTT; 1 h; maltose elution, SDS-PAGE, Coomassie; both purified
T4 sequence: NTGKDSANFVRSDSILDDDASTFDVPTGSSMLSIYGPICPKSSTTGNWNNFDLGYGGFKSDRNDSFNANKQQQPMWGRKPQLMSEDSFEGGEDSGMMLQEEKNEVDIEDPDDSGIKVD

[5] = molecular target: T5, MBP-tagged Dm Roq-CC mutant M2 (Drosophila melanogaster) (UniProt Q9VV48); test: as above
T5 sequence: T4 sequence with E92I, E100L

[6] = molecular target: T6, MBP-tagged Dm Roq-CC-ΔCBM (Drosophila melanogaster) (UniProt Q9VV48); test: as above
T6 sequence: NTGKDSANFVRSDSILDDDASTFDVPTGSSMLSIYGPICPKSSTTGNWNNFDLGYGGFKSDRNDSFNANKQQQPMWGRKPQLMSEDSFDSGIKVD

[7] = molecular target: MBP-NOT1 (residues 1093–2371) (human) (UniProt A5YKK6); test: co-purification of co-expressed proteins; five human proteins co-expressed in E. coli; amylose resin, tag cleavage, HiTrap Heparin, Superdex 200 size exclusion

Substance	binding [1]	binding [2]	binding [3]	binding [4]	binding [5]	binding [6]	binding [7]
CAF40-HA-MBP (expressed in HEK293T) (from UniProt Q92600 1-299)	binds	no binding	no binding				
Hs CAF40 ARM domain (residues 19–285) (from UniProt Q92600 19-285) (domain or fragment)				no binding	no binding	no binding	binds
